Assay results reported in PubChem BioAssay AID2546 (National Center for Advancing Translational Sciences (NCATS), 2010).
In all, about 310,000 compounds went through this assay and about 11,000 (3.5%) were called active. The inconclusive results got no clear call from the source; some entries with a clear call stand among them for comparison. The call rests on the fitted dose curve; in most records, active means well fitted inhibition curve with a large enough effect; inconclusive means small, poorly fitted or top-dose-only effect, or effect the other way; inactive means flat fitted curve, though single readings scatter. No potency is given beside an inconclusive call; the fits are too rough.
On the % scale 0 is the no-effect control and ±100 the full control effect; potency means the concentration at half of the fitted maximal effect; tags describe the fitted curve by direction and shape.

Assay: VP16 counterscreen qHTS for inhibitors of ROR gamma transcriptional activity;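 further: Gal4-VP16 expression switched on by copper sulfate through the metallothionein promoter; nearly all actives have a fitted effect of over 50% in size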
Settings: Drosophila S2 Gal4-VP16 UAS-luciferase, luminescence, 20 h; activity, negative = inhibition: at 53.6 µM (top of the series)
For C[C@@H](NC(=O)c1coc(=O)c(Br)c1)c1ccccc1, the “activity, negative = inhibition” value was inactive: -9.06%.
In the case of C=CCc1ccc(OCc2ccc(C(=O)O)o2)c(OC)c1, the Potency is reported as inconclusive [inhibitor, partial curve].
In the case of Nc1nc2c(ncn2C2OC(CO)CC2O)c(=O)[nH]1 (configuration not stated), the Potency is reported as inconclusive [inhibitor, partial curve].
With CCOC(=O)c1c(NC(=O)CSc2nnc(Cc3ccccc3)o2)sc(C(C)=O)c1C the Potency was inconclusive [inhibitor, single point].
With O=C(c1ccc2oc(CCCc3ccccc3)nc2c1)N1CCCCC1CO (configuration not stated) the Potency was inconclusive [activator, partial curve].
For COc1ccc(-c2n[nH]c(C(F)(F)F)c2-c2cc3ccccc3o2)c(O)c1, the Potency was inconclusive [inhibitor, single point].
In the case of COc1ccccc1NC(=S)NCCc1c[nH]c2ccccc12, the Potency is reported as inconclusive [inhibitor, single point].
In the case of CCCCCCN(C(=O)CCCCCN1C(=O)NC(c2ccc(-c3ccccc3)cc2)C(C(=O)OCc2ccccc2)=C1C)C(C(=O)NCCCC)c1ccc(O)c(C(=O)OC)c1 (configuration not stated), the Potency is reported as “inactive”.
For CC1CC(C)(C)NC(=S)N1CCC(=O)N1CCc2ccccc2C1 (configuration not stated), the Potency was inconclusive [inhibitor, single point].
With Cc1c(-c2ccc(Br)cc2)nc2ccccn12 the Potency was inconclusive [inhibitor, single point].
For CCCCC(=O)NC(=S)NNS(=O)(=O)c1ccccc1, the Potency was active: 20 µM.
With COc1cccc(S(=O)(=O)N2CCN(Cc3ccc4c(c3)OCO4)CC2)c1 the “activity, negative = inhibition” value was inactive: 0.881%.
In the case of Cc1cnn(C(=S)NCC2CCCO2)c1 (configuration not stated), the Potency is reported as inconclusive [inhibitor, single point].
In the case of COc1ccc(CN2CCCC(C(=O)Nc3cccc(-n4cccn4)c3)C2)cc1 (configuration not stated), the “activity, negative = inhibition” value is reported as inactive: -2.59%.
For COc1ccc(Br)cc1C(C[N+](=O)[O-])c1c(N)n(C)c(=O)n(C)c1=O (configuration not stated), the Potency was inconclusive [inhibitor, single point].
For O=C(NCC(c1cccnc1)N1CCN(c2ccc(F)cc2)CC1)OCc1ccccc1 (configuration not stated), the Potency was inconclusive [inhibitor, partial curve].
In the case of COc1c(C)cc(C(=O)C2CCCN(C(=O)c3cccc(-n4cccn4)c3)C2)cc1C (configuration not stated), the “activity, negative = inhibition” value is reported as inactive: 8.06%.
For CCCC(=O)C1=C(O)C(c2cccc(Oc3ccccc3)c2)CCC1=O (configuration not stated), the Potency was inconclusive [inhibitor, single point].
For COCCCNC(=O)/C(C#N)=C/c1ccc(OCC(=O)O)c(OC)c1, the Potency was inconclusive [inhibitor, single point].
In the case of C=CCNC(=S)NNC(=O)COc1c(Cl)cc(Cl)cc1Cl, the Potency is reported as active: 1.58 µM.
With Oc1cccc2ccc(/C=C/c3cccs3)nc12 the Potency was inconclusive [inhibitor, single point].
In the case of CC(C)CCOCC(O)CCC(=O)NNC(=S)Nc1ccccc1 (configuration not stated), the Potency is reported as inconclusive [inhibitor, single point].
With Cn1cc(/C=C2\SC(=O)NC2=S)c2ccccc21 the Potency was active: 6.31 µM.
With S=C(CN1CCCC1=S)NCCc1ccccc1 the Potency was inconclusive [inhibitor, single point].
In the case of O=C(CCC(=O)c1ccc(F)cc1)Nc1cccc(S(=O)(=O)Nc2cccc(Cl)c2)c1, the Potency is reported as inconclusive [inhibitor, single point].
For Cc1cc[n+](CC(=O)c2ccc(NC(=O)c3ccccc3)cc2)c2ccccc12, the “activity, negative = inhibition” value was inactive: 0.169%.
With O=C(CCC(=O)c1cccs1)c1cccs1 the “activity, negative = inhibition” value was inactive: -29.7%.
For COc1ccc(-c2noc(CCC(=O)N(C)c3cccc(C)c3)n2)cc1, the “activity, negative = inhibition” value was inactive: -0.571%.
For COc1ccc(NC(=O)Cn2nnc(-c3ccccc3NC(=O)c3ccco3)n2)cc1, the Potency was inconclusive [inhibitor, single point].
For CC(=O)N1CCc2cc(S(=O)(=O)CCC(=O)Nc3cc(C)cc(C)c3)ccc21, the “activity, negative = inhibition” value was inactive: -8.22%.
For COc1ccc(NC(=O)c2ccccc2)c([N+](=O)[O-])c1, the “activity, negative = inhibition” value was inactive: 28.3%.
With COc1ccc(Nc2ncnc3sc(C)cc23)cc1 the “activity, negative = inhibition” value was inactive: -8.4%.
In the case of CNC(=S)N1N=C(c2ccc(Br)cc2)CC1c1ccc(OC)cc1 (configuration not stated), the Potency is reported as inconclusive [inhibitor, single point].
In the case of Cc1nnc(OCc2nc3ccccc3n2C)c2ccccc12, the “activity, negative = inhibition” value is reported as inactive: 28.9%.
With CC/C(=N\NC(=O)Cc1ccc(Br)cc1)c1cccs1 the Potency was inconclusive [activator, single point].
For CCCN1C(=O)CC(c2ccco2)Sc2ccccc21 (configuration not stated), the Potency was inconclusive [inhibitor, single point].
For COc1ccc(C2CC(=O)c3cnc(NC(=O)c4cccc(OC)c4)nc3C2)cc1 (configuration not stated), the “activity, negative = inhibition” value was inactive: 3.46%.
For O=C(O)c1cc(-c2ccc3c(c2)OCO3)nc2ccc(Cl)cc12, the Potency was inconclusive [inhibitor, partial curve, poor fit].
With NCCC[C@@H](CC(=O)N[C@@H]1CCCC[C@H]1C(=O)N[C@H](CC(=O)N[C@@H](CCC(=O)O)CC(=O)O)Cc1c[nH]c2ccccc12)NC(=O)C[C@H](CO)NC(=O)[C@@H]1CNCC[C@H]1N the “activity, negative = inhibition” value was inactive: 1.01%.
In the case of C=CCn1c(O)c(N=O)c2ccccc21, the Potency is reported as inconclusive [inhibitor, single point].
With CCC1(C)Cc2nc3[nH]c(=S)n(-c4ccccc4C)c(=O)c3cc2CO1 (configuration not stated) the Potency was active: 10 µM.
In the case of COc1ccc(C2CC(c3ccccc3)Nc3nc(NC(=O)c4cccs4)nn32)cc1 (configuration not stated), the Potency is reported as active: 5.62 µM.
With Cc1cc(Cl)c2oc(C(=O)N(C)Cc3ccon3)c(C)c2c1 the Potency was inconclusive [inhibitor, single point].
With Oc1ccc2ccccc2c1C1Nc2cccc3cccc(c23)N1 the Potency was inconclusive [inhibitor, single point].
In the case of COc1ccc(NC(=O)c2ccccc2NC(=O)CSc2ccc(C)cc2)cc1, the Potency is reported as inconclusive [inhibitor, single point].
In the case of CC(=O)Nc1c(I)c(C(=O)O)c(I)c(N(C)C(C)=O)c1I, the “activity, negative = inhibition” value is reported as inactive: 1.05%.
In the case of COc1ccc(Nc2nnc(-c3ccc(N4CCOCC4)c([N+](=O)[O-])c3)c3ccccc23)cc1, the “activity, negative = inhibition” value is reported as inactive: -6.73%.
